Reference: US20260242437A1 (BEIJING MABWORKS BIOTECH, published 2026)

T1: recombinant human IL-2Rβγ protein (human, UniProt P14784 27-240; P31785 23-262)
T1 construct: Bought protein
T1 sequence (looked up) 1: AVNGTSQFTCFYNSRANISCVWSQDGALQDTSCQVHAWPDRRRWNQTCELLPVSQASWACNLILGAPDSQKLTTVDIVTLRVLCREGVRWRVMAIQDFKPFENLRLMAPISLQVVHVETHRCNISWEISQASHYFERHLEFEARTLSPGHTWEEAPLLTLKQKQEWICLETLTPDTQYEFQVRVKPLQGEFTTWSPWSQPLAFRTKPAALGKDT
T1 sequence (looked up) 2: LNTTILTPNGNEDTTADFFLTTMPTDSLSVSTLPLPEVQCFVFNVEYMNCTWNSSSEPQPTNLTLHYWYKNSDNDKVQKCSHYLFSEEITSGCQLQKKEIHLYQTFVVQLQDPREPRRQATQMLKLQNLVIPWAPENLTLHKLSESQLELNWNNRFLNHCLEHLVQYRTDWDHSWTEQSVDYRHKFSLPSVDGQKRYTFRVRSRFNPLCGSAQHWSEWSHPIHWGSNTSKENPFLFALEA

T2: human IL-2Rαβγ (high-affinity IL-2 receptor) on cells (human, UniProt P01589 22-272; P14784 27-551; P31785 23-369)
T2 sequence (looked up) 1: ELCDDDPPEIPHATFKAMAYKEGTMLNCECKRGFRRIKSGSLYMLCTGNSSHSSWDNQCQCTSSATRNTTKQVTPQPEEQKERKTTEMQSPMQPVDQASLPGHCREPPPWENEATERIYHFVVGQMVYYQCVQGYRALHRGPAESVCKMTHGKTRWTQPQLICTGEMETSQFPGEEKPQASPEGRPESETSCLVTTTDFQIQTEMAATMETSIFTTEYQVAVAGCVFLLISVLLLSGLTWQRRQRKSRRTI
T2 sequence (looked up) 2: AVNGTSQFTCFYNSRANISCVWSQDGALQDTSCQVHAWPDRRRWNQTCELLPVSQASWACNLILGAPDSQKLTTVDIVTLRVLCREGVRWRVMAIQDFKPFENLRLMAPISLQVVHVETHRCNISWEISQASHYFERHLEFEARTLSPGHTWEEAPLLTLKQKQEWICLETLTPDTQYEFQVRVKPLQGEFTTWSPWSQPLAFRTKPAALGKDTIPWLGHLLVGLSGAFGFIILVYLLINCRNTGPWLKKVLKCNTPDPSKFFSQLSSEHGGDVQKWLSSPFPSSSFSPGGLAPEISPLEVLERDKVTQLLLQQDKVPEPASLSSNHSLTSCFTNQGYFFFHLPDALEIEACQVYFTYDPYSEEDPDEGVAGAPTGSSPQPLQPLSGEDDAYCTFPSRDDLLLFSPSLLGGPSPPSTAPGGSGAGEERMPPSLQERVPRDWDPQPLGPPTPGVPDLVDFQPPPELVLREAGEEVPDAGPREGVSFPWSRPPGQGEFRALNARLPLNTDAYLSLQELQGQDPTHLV
T2 sequence (looked up) 3: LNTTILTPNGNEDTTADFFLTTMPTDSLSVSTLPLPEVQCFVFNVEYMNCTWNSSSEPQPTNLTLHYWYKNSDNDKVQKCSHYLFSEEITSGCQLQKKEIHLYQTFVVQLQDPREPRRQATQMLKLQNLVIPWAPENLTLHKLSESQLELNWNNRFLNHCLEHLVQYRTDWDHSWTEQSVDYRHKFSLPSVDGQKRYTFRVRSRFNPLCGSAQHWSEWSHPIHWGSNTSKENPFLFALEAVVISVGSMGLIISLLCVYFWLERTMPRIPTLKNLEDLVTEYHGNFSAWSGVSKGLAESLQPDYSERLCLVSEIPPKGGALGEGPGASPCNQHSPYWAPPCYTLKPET


Assays:
[1] = target: T1, recombinant human IL-2Rβγ protein; assay: SPR (BIAcore 8K), bispecific protein captured by anti-human Fc on CM5, IL-2Rβγ in flow
[2] = target: T2, human IL-2Rαβγ (high-affinity IL-2 …); assay: cell-based or functional assay

| Kd [1] [pM] | kon [1] [M⁻¹ s⁻¹] | EC50 (ng/mL)-PD1- HEK-Blue/IL-2 [2] [ng/mL] | koff [1] [s⁻¹] | Binder |
| --- | --- | --- | --- | --- |
| 477 | 192000 | 5.34 |  | bispecific recombinant protein 309-0 (other, Anti-PD-1 IgG1 (Keytruda variable regions; L234A/L235A/P329A, knob-into-hole) with one IL2-D37 linked to the C terminus of the knob heavy chain) heavy 1: QVQLVQSGVEVKKPGASVKVSCKASGYTFTNYYMYWVRQAPGQGLEWMGGINPSNGGTNFNEKFKNRVTLTTDSSTTTAYMELKSLQFDDTAVYYCARRDYRFDMGFDYWGQGTTVTVSSASTKGPSVFPLAPSSKSTSGGTAALGCLVKDYFPEPVTVSWNSGALTSGVHTFPAVLQSSGLYSLSSVVTVPSSSLGTQTYICNVNHKPSNTKVDKKVEPKSCDKTHTCPPCPAPEAAGGPSVFLFPPKPKDTLMISRTPEVTCVVVDVSHEDPEVKFNWYVDGVEVHNAKTKPREEQYNSTYRVVSVLTVLHQDWLNGKEYKCKVSNKALAAPIEKTISKAKGQPREPQVYTLPPSRDELTKNQVSLSCAVKGFYPSDIAVEWESNGQPENNYKTTPPVLDSDGSFFLVSKLTVDKSRWQQGNVFSCSVMHEALHNHYTQKSLSLSP heavy 2: QVQLVQSGVEVKKPGASVKVSCKASGYTFTNYYMYWVRQAPGQGLEWMGGINPSNGGTNFNEKFKNRVTLTTDSSTTTAYMELKSLQFDDTAVYYCARRDYRFDMGFDYWGQGTTVTVSSASTKGPSVFPLAPSSKSTSGGTAALGCLVKDYFPEPVTVSWNSGALTSGVHTFPAVLQSSGLYSLSSVVTVPSSSLGTQTYICNVNHKPSNTKVDKKV[human IgG1 Fc with L234A L235A P329A T366W (EU numbers) omitted here]GGGGSGGGGSGGGGSAPASSSTKKTQLQLEHLLLDLQMILNGINNYKNPLTRMLTAKFRMPKKATELKHLQCLEEELKPLEEVLNLAQSKNFHLRPRDLISNINVIVLELKGSETTFMCEYADETATIVEFLNRWITFSQSIISTLT light: EIVLTQSPATLSLSPGERATLSCRASKGVSTSGYSYLHWYQQKPGQAPRLLIYLASYLESGVPARFSGSGSGTDFTLTISSLEPEDFAVYYCQHSRDLPLTFGGGTKVEIKRTVAAPSVFIFPPSDEQLKSGTASVVCLLNNFYPREAKVQWKVDNALQSGNSQESVTEQDSKDSTYSLSSTLTLSKADYEKHKVYACEVTHQGLSSPVTKSFNRGEC |
| 620 | 152000 | 6.56 | 9.42e-05 | bispecific recombinant protein 309-3 (other) heavy 1: QVQLVQSGVEVKKPGASVKVSCKASGYTFTNYYMYWVRQAPGQGLEWMGGINPSNGGTNFNEKFKNRVTLTTDSSTTTAYMELKSLQFDDTAVYYCARRDYRFDMGFDYWGQGTTVTVSSASTKGPSVFPLAPSSKSTSGGTAALGCLVKDYFPEPVTVSWNSGALTSGVHTFPAVLQSSGLYSLSSVVTVPSSSLGTQTYICNVNHKPSNTKVDKKVEPKSCDKTHTCPPCPAPEAAGGPSVFLFPPKPKDTLMISRTPEVTCVVVDVSHEDPEVKFNWYVDGVEVHNAKTKPREEQYNSTYRVVSVLTVLHQDWLNGKEYKCKVSNKALAAPIEKTISKAKGQPREPQVYTLPPSRDELTKNQVSLSCAVKGFYPSDIAVEWESNGQPENNYKTTPPVLDSDGSFFLVSKLTVDKSRWQQGNVFSCSVMHEALHNHYTQKSLSLSP heavy 2: QVQLVQSGVEVKKPGASVKVSCKASGYTFTNYYMYWVRQAPGQGLEWMGGINPSNGGTNFNEKFKNRVTLTTDSSTTTAYMELKSLQFDDTAVYYCARRDYRFDMGFDYWGQGTTVTVSSASTKGPSVFPLAPSSKSTSGGTAALGCLVKDYFPEPVTVSWNSGALTSGVHTFPAVLQSSGLYSLSSVVTVPSSSLGTQTYICNVNHKPSNTKVDKKV[human IgG1 Fc with L234A L235A P329A T366W (EU numbers) omitted here]GGGGSGGGGSGGGGSAPASSSTKKTQLQLEHLLLDLQMILNGINNYKNPLTRMLTAKFRMPKKATELKHLQCLEEELKPLEEVLNLAQSKNFHLRPRDLITNINVIVLELKGSETTFMCEYADETATIVEFLNRWITFSQSIISTLT light: EIVLTQSPATLSLSPGERATLSCRASKGVSTSGYSYLHWYQQKPGQAPRLLIYLASYLESGVPARFSGSGSGTDFTLTISSLEPEDFAVYYCQHSRDLPLTFGGGTKVEIKRTVAAPSVFIFPPSDEQLKSGTASVVCLLNNFYPREAKVQWKVDNALQSGNSQESVTEQDSKDSTYSLSSTLTLSKADYEKHKVYACEVTHQGLSSPVTKSFNRGEC |
| 860 | 145000 | 11.6 | 0.000125 | bispecific recombinant protein 309-1 (other) heavy 1: QVQLVQSGVEVKKPGASVKVSCKASGYTFTNYYMYWVRQAPGQGLEWMGGINPSNGGTNFNEKFKNRVTLTTDSSTTTAYMELKSLQFDDTAVYYCARRDYRFDMGFDYWGQGTTVTVSSASTKGPSVFPLAPSSKSTSGGTAALGCLVKDYFPEPVTVSWNSGALTSGVHTFPAVLQSSGLYSLSSVVTVPSSSLGTQTYICNVNHKPSNTKVDKKVEPKSCDKTHTCPPCPAPEAAGGPSVFLFPPKPKDTLMISRTPEVTCVVVDVSHEDPEVKFNWYVDGVEVHNAKTKPREEQYNSTYRVVSVLTVLHQDWLNGKEYKCKVSNKALAAPIEKTISKAKGQPREPQVYTLPPSRDELTKNQVSLSCAVKGFYPSDIAVEWESNGQPENNYKTTPPVLDSDGSFFLVSKLTVDKSRWQQGNVFSCSVMHEALHNHYTQKSLSLSP heavy 2: QVQLVQSGVEVKKPGASVKVSCKASGYTFTNYYMYWVRQAPGQGLEWMGGINPSNGGTNFNEKFKNRVTLTTDSSTTTAYMELKSLQFDDTAVYYCARRDYRFDMGFDYWGQGTTVTVSSASTKGPSVFPLAPSSKSTSGGTAALGCLVKDYFPEPVTVSWNSGALTSGVHTFPAVLQSSGLYSLSSVVTVPSSSLGTQTYICNVNHKPSNTKVDKKV[human IgG1 Fc with L234A L235A P329A T366W (EU numbers) omitted here]GGGGSGGGGSGGGGSAPASSSTKKTQLQLQHLLLDLQMILNGINNYKNPLTRMLTAKFRMPKKATELKHLQCLEEELKPLEEVLNLAQSKNFHLRPRDLISNINVIVLELKGSETTFMCEYADETATIVEFLNRWITFSQSIISTLT light: EIVLTQSPATLSLSPGERATLSCRASKGVSTSGYSYLHWYQQKPGQAPRLLIYLASYLESGVPARFSGSGSGTDFTLTISSLEPEDFAVYYCQHSRDLPLTFGGGTKVEIKRTVAAPSVFIFPPSDEQLKSGTASVVCLLNNFYPREAKVQWKVDNALQSGNSQESVTEQDSKDSTYSLSSTLTLSKADYEKHKVYACEVTHQGLSSPVTKSFNRGEC |
